± gives the standard deviation. Whole data set: some 6,600 sequences, median “pre-steady-state target cleavage rate” near 0.07, cut for the highest 2% near 0.72. The entries are a selection whose mix differs from that of the whole data set.
Test system: MIWI (PIWIL1) piRISC loaded with Kctd7 piRNA (30 nt)
Experiment: pre-steady-state target cleavage rate (min^-1); MIWI and MILI are mouse PIWI proteins and EfPiwi is from a freshwater sponge; tags in brackets are library labels; higher = faster piRNA-guided slicing of the target
Conditions: guide: Kctd7 piRNA 5'p-UGUUAAUCUCUCAGAGAAGGUGACAGUGAU; auxiliary factor: 500 nM mouse GTSF1
How it was run: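 In HEPES–potassium acetate buffer at 33 °C, […] transcribed, DNA-blocked target RNA library was mixed with 1 nM active affinity-purified piRISC carrying one synthetic guide, with or without 500 nM GTSF1 partner protein, for 0–8 or 0–960 min. Uncleaved targets were sequenced and normalised to depth and to weakly complementary targets; three trials were pooled and k3 was capped at 0.0001 min^-1. The pre-steady-state cleavage rate followed from a burst-and-steady-state fit.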
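Also: 1 nM active piRISC with 0.1 nM target library at 33 °C single turnover.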

Sequence	pre-steady-state target cleavage rate
UACACUGUCACCUUCUCUGAGAGAAAAACA	0.262 ± 0.052
UUCACUGUCACGUUCUCUGAGAGAUUAACA	0.681 ± 0.035
UAGACUGACACCAUCUCUGAGAGAUUAACA	0.511 ± 0.043
UAGACUGAGUCCUUCUCUGAGAGAUUAAGA	0.0188 ± 0.0034
UAGUGACAGACCAACUCUGAGAGAUUAAGA	< 0.0001
UUCAGUGUCACCUUCUCUGAGAGAUUAUCA	0.189 ± 0.034
UACACUGUCACCUUCUCUGACAGAUUAAGA	0.00873 ± 0.005
UAGUGAGUCACGUUCUCUGAGAGAAUAACA	0.183 ± 0.029
UAGUGACAGAGGAUCUCUGAGAGAUUAUGA	< 0.0001
UACACUGUCACCUUCUCUGAGAGAUAAUGA	0.107 ± 0.032
UACACUGUCACCUUCUCUGAGAGAUUUUCA	0.206 ± 0.044
UUCACUGACACCUUCUGUGAGAGAUUAACA	0.34 ± 0.022
UAGUGUGUCACCUUCUCUGAGAGAAAUACA	0.0539 ± 0.019
UAGUGACAGUGGAAGUCUGAGAGCAUUAACA	< 0.0001
UAGUGACUCACCGUCUCUGAGAGAUUAACA	0.431 ± 0.05
UAGUGAGUCACGUUCUCUGAGAGAUUAAGA	0.115 ± 0.018
UAGUGUGUCACCUUCUCUGAGAGAUAAUGA	0.0337 ± 0.01
UAGUGACAGUGCUUCUCUGAGAGAUUAUACA	0.0041 ± 0.0037
UAGUGAGUCACCUUCUCUGAGAGUUUUACA	0.265 ± 0.055
UAGUGAGUCACCUUCACUGUGAGAUUAACA	0.171 ± 0.012

Sequence	pre-steady-state target cleavage rate
UAGUGUGUCGACCUUCUCUGAGAGAUUAACA	0.155 ± 0.017
UAGUGUGUCACCUUCUCUGAGAGAUUUACA	0.361 ± 0.052
UAGUGACAGUGCUUCUCUGAGAGAUUGACA	0.0132 ± 0.0031
UAGUGACAGUCCUUCUCUGAGAGAUAUACA	0.0072 ± 0.0034
UAGUGAGUCACCUUCUCUGAGAGAAUUACA	0.129 ± 0.048
AUCACAGUCACCUUCUCUGAGAGAUUUACA	0.413 ± 0.053
UAGUGACACACCUUCUCUGAGAGACUAACA	0.228 ± 0.042
AUCACUGUCACCAUCUCUGAGAGAAUAACA	0.253 ± 0.042
UAGACUGUCACCUUCUGAGAGAGAUUAAGA	0.0102 ± 0.0025
UAGUGUGUCACCUUCUAUGAGAGAUUAACA	0.191 ± 0.021
AUCUCUGUCACCUUCUGUGAGAGAUUAACA	0.496 ± 0.025
AUGACUGUCAGCUUCUCUGAGAGAUUAACA	0.721 ± 0.046
UAGUCUGUCACCUACUCUGAGUGAUUAACA	0.0224 ± 0.0033
UAGUGACAGUGGAAGACUCAGAGAUUUACA	< 0.0001
UAGUGUCUCACCUUCUCUGAGAGAUUAUCA	0.239 ± 0.033
UAGUGUGUCACGAACUCUGAGAGAUUAAGA	0.00268 ± 0.0022
UAGUGAGUCAGCUUCUCUGAGUGAUUAACA	0.0171 ± 0.0038
UAGUCUGUCACCUUCUCUGAGAGAUUCACA	0.434 ± 0.074
UAGUGAGUGACCUUCUCUCAGAGAUUAACA	0.0655 ± 0.011
UAGUGACAGUGCGUUCUCUGAGAGAUUAACA	0.0485 ± 0.0053
